Reference: paper PMC4336329 (PLoS ONE, 2015)
The whole screen tested about 310,000 compounds, of which about 2,200 (0.71%) showed an effect of 50% or more. The effect is printed as a negative number. The list shows a part of the results.

biological target: human ether-à-go-go-related gene (hERG) potassium channel (human, UniProt Q12809); assay: primary screen, population patch clamp on CHO cells stably expressing hERG
Sequence (Q12809 whole entry, looked up): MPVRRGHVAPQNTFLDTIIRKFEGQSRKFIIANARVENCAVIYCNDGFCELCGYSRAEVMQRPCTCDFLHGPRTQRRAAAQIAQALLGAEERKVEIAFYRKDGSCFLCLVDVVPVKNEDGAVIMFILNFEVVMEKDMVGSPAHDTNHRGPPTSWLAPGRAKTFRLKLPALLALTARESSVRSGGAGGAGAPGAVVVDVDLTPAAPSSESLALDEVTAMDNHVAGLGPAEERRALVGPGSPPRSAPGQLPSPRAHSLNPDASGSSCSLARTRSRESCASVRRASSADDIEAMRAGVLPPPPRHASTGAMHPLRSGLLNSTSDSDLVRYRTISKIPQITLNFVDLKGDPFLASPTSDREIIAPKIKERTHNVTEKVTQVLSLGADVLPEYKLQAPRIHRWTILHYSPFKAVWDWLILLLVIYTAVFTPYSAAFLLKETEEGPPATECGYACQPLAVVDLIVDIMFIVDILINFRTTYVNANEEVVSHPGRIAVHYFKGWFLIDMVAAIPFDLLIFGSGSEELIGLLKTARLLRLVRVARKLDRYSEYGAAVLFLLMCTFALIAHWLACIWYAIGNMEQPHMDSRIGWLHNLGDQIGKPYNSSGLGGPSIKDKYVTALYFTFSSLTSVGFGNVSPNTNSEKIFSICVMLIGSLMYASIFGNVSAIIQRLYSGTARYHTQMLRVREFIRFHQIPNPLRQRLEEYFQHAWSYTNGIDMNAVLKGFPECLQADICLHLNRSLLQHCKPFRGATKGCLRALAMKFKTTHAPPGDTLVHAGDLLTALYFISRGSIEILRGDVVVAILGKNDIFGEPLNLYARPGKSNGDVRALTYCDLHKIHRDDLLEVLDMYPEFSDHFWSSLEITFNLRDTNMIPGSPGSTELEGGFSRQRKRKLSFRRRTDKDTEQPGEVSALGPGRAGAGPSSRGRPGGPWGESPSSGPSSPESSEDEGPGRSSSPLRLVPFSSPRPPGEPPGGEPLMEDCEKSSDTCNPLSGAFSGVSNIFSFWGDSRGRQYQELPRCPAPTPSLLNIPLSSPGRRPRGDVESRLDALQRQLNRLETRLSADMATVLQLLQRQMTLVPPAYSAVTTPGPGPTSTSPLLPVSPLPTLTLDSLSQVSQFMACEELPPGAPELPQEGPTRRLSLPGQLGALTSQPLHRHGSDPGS

Row | Compound | hERG current change (%, negative = inhibition) at 1uM
1 | CCOC(=O)Cn1nc(CC)c2ccccc2c1=O | -4.77%
2 | COc1ccc(C(=O)N2CCC(C(=O)N3CCN(Cc4ccccc4)CC3)CC2)cc1 | 11.8%
3 | CCOC(=O)c1c(NC(=O)COc2ncnc3ccccc23)sc(C(C)=O)c1C | 0.839%
4 | CCC(=O)Nc1nonc1-c1nc2ccccc2n1N(C(=O)CC)C(=O)CC | 11.4%
5 | COc1ccccc1NC(=O)c1ccc(S(=O)(=O)N(C)c2ccccc2)cc1 | 4.53%
6 | COCCCN1C(=O)c2ccc(C(=O)OCC(=O)N(CCC#N)c3cc(C)cc(C)c3)cc2C1=O | -1.58%
7 | Cc1[nH]nc2c1C1(CCN(C(=O)OCc3ccccc3)CC1)C(C#N)=C(N)O2 | 3.17%
8 | Cc1cccc(NC(=O)Cn2c([N+](=O)[O-])cnc2C)c1C | 13.1%
9 | Cc1cc([N+](=O)[O-])cc(C)c1OCC(=O)N/N=C/c1ccc(OC(=O)c2ccccc2Br)cc1 | 7.4%
10 | N#Cc1ccc(/C=N/N=C(N)N)cc1 | 1.69%
11 | C=CCN1CCN(C(CCC)c2nnnn2Cc2ccco2)CC1 (centres unmarked) | 17.6%
12 | COc1ccc(N/N=C(\C=N\O)C(=O)c2ccc(OC)cc2)cc1 | 0.602%
13 | Cc1nn(CCc2nn[nH]n2)c2nc(-c3ccc(C4CCCCC4)cc3)cc(C(F)(F)F)c12 | 4.58%
14 | Cc1cc2cc(C)c3nnc(SCC(=O)NCc4ccco4)n3c2cc1C | -5.49%
15 | COC(=O)c1ccc(C2/C(=C(/O)c3ccc4c(c3)CC(C)O4)C(=O)C(=O)N2Cc2cccnc2)cc1 (centres unmarked) | 13.5%
16 | CCc1ccc(CNc2ccc3c(c2)ncn3C(C)(C)C)cc1 | 8.57%
17 | Cl.Oc1ccc(Cl)cc1CNCC1CCCCC1 | 13%
18 | Cc1ccccc1-n1c(-c2cccnc2)n[nH]c1=S | 8.97%
19 | Cc1ccc([N+](=O)[O-])cc1Nc1nc(N2CCCC2)nc(N2CCCC2)n1 | 19%
20 | Cc1cc(/C=C(\C#N)C(=O)O)c(C)n1CCC(C)C | 10.9%
21 | c1c2c(cc3sc(N4CCOCC4)nc13)OCCO2 | 1.67%
22 | Cc1cccc(NC(=O)c2cccc(NC(=O)c3ccccc3)c2)n1 | -6.12%

Row | Compound | hERG current change (%, negative = inhibition) at 1uM
23 | O=C(NCC(=O)N(c1cccnc1)C(C(=O)NC1CCCC1)c1ccco1)c1cccs1 (centres unmarked) | 9.13%
24 | COc1cc(/C=N/NC(=O)c2cc(C34CC5CC(CC(C5)C3)C4)[nH]n2)ccc1O | -7.2%
25 | COC[C@]12CN(C)C3C4[C@H](OC)[C@H]1C3([C@@H](OC)C[C@H]2O)[C@@H]1C[C@@]2(O)[C@H](OC(=O)c3ccccc3)[C@@H]1[C@]4(OC(C)=O)[C@@H](O)[C@@H]2OC | 4.99%
26 | CC(=O)Nc1ccc(NC(=O)CCNC(=O)c2ccccc2Cl)cc1 | 6.77%
27 | CCS(=O)(=O)N1CCC(C(=O)NCCCN2CCCCCC2)CC1 | -4.37%
28 | c1ccc(CNn2nnnc2-c2ccccc2)cc1 | 2.07%
29 | Cc1cc(C)c(OCCCON2C(=O)CCC2=O)c(Br)c1 | 7.85%
30 | COC(=O)c1noc(-c2ccc(C)cc2)n1 | 0.393%
31 | O=C(CNC(=O)c1ccccc1F)OCC(=O)N1CCCc2ccccc21 | -4.47%
32 | COc1ccc(S(=O)(=O)NC(CC(=O)N2CCC3(CC2)OCCO3)c2ccco2)cc1 (centres unmarked) | 10.6%
33 | C=CCN1C(=O)/C(=C\c2ccc(OC(=O)c3ccco3)c(OC)c2)SC1=S | 13.4%
34 | COc1ccc(N2CCN(c3ncnc4c3nnn4Cc3ccccc3Cl)CC2)cc1 | 8.15%
35 | COc1cc(C(=O)Nc2ccc(Br)cc2C(=O)c2ccccc2Cl)cc(OC)c1OC | 10.5%
36 | CCN(CC)C(=O)Cn1cc(S(=O)(=O)CC(=O)Nc2cc(OC)ccc2OC)c2ccccc21 | 7.07%
37 | CCOc1ccc2nc(NCCNC(=O)C(C)C)c(C)cc2c1 | -27.3%
38 | CC(C)c1ccc(NC(=O)c2cccc(NC3=NC4CS(=O)(=O)CC4S3)c2)cc1 (centres unmarked) | 2.08%
39 | CCOc1ccc(CCNC(=O)Cn2cccc2C(=O)c2ccccc2C)cc1OCC | 5.18%
40 | N#Cc1cccc(CSc2nnc(CCCO)n2-c2ccccc2)c1 | 10.6%
41 | c1ccc2c(c1)Nc1ccncc1S2 | 9.27%
42 | CC(NC(=O)CN1C(=O)COc2ccccc21)c1ccccc1 (centres unmarked) | 1.01%
43 | O=C1[C@@H]2Cc3c([nH]c4ccccc34)CN2C(=O)CN1CCO | 14.2%
44 | CC(=O)N1c2ccc(S(=O)(=O)N3CCC(C(=O)N4CC(C)CC(C)C4)CC3)cc2CC1C (centres unmarked) | 16.4%

Row | Compound | hERG current change (%, negative = inhibition) at 1uM
45 | CN(C)c1cccc(N(C)C)c1CNC(=O)C(C)(C)C | 11%
46 | CC(C)/C(=N\NC(=O)Nc1ccccc1)c1ccccc1 | 7.52%
47 | Cl.O=C(c1ccc(Cl)cc1)C(CN1CCCCC1)c1ccccc1 (centres unmarked) | 4.97%
48 | Cc1ccc(CCN2CC(C(=O)NCCN(C)C)CC2=O)cc1 (centres unmarked) | 16.5%
49 | CN(C)c1nc(Nc2ccc(F)cc2)nc(Oc2ccc(F)cc2)n1 | 10.1%
50 | Cc1ccc(NC(=O)Nc2cccnc2)cc1NC(=O)Nc1cccnc1 | 13.1%
51 | C=CCN(CC=C)S(=O)(=O)c1ccc(C(=O)Nc2nc3c(s2)CCc2ccccc2-3)cc1 | 1.31%
52 | COC(=O)c1cc(-c2ccc(NC(C)=O)cc2)nc2ccccc12 | 11.6%
53 | CC(=O)NCCn1c(SCC(=O)NCc2ccco2)nc2ccccc2c1=O | -1.64%
54 | CCC1CCCCN1C1Sc2ccc(C(=O)OC)cc2NC1=O (centres unmarked) | -2.48%
55 | COc1ccccc1CC(=O)Nc1ccc(-c2nnc(-c3ccco3)o2)cc1 | 3.41%
56 | Cc1ccc(NC(=O)CNc2ccccc2CN(C)C2CCCCC2)cc1 | 0.499%
57 | O=C(CC1N=C2c3ccccc3N=C(SCc3ccc(F)cc3)N2C1=O)NCc1ccco1 (centres unmarked) | -43.6%
58 | Cc1cc(F)ccc1S(=O)(=O)Nc1ncnc2sc3c(c12)CCC3 | 12.8%
59 | COc1cc(F)cc(-c2ccc3c(c2)c(-c2cccs2)c(-c2cc(OC)cc(OC)c2)n3C)c1 | 12.5%
60 | CCOc1ccccc1C1c2[nH]c3ccccc3c2C[C@H]2C(=O)N(C3CC3)CC(=O)N12 (some centres unmarked) | 10.5%
61 | O=C(c1ccccc1)N(Cc1ccco1)C1CCS(=O)(=O)C1 (centres unmarked) | 14.8%
62 | COc1ccc(-c2cc(C(=O)NCc3ccc(Cl)cc3)no2)cc1OC | 12.1%
63 | O=C(NCCc1c[nH]c2ccccc12)C(F)(F)C(F)F | 6.27%
64 | COc1ccc(/C=C(\NC(=O)c2ccc([N+](=O)[O-])cc2)C(=O)N2CCOCC2)cc1 | -54.9%
65 | O=c1[nH]nc(-c2ccccc2)cc1-c1ccccc1 | 8.32%
66 | O=C(Nc1ccc(S(=O)(=O)NCC2CCCO2)cc1)c1ccc(F)cc1 (centres unmarked) | 13%

Row | Compound | hERG current change (%, negative = inhibition) at 1uM
67 | O=C(CCSc1ccc(Cl)cc1)NC1CCCC1 | 16.3%
68 | CCCn1nc(C(=O)NCCN2CCOCC2)c2ccccc2c1=O | 12.9%
69 | Cc1occc1C(=O)NCc1nc(-c2ccc(Cl)cc2)no1 | 16.3%
70 | CN(C(=S)NC(=O)CCCOc1ccc(Cl)cc1Cl)c1ccccc1 | 8.68%
71 | CC(C)O.CCCC1(CCC)NC(=O)N(CC(=O)N2CCN(C(=O)c3ccco3)CC2)C1=O | 7%
72 | COC(=O)c1cc(NC(=O)CC2SC(=Nc3ccccc3)N(CCc3c[nH]c4ccccc34)C2=O)cc(C(=O)OC)c1 (centres unmarked) | 14.6%
73 | COc1ccc(/C=N/NC(=O)c2cc(C)oc2C)cc1OCc1ccccc1 | 11.8%
74 | CN(CC1CCCO1)S(=O)(=O)c1ccc(C(=O)Nc2nnc(-c3ccccc3)o2)cc1 (centres unmarked) | 12.7%
75 | COC(=O)CCC(C)N1CCC(Oc2ccc(C(=O)N3CCCC3)cc2)CC1 (centres unmarked) | 4.49%
76 | CCCn1cc(SCC(=O)NCC2CCCO2)c2ccccc21 (centres unmarked) | 13.7%
77 | COc1ccc(/C=C/C(=O)NCC(=O)N/N=C/c2cc(Br)ccc2OC)cc1 | 5.79%
78 | Cc1cnc(NC(=O)CSc2nc3ccccc3c(=O)[nH]2)s1 | 13.8%
79 | O=C(O)C(=O)O.O=[N+]([O-])c1cccc(CN2CCN(Cc3ccco3)CC2)c1 | 10.8%
80 | Cc1nn(CC(=O)O)c(C)c1N | 12.4%
81 | O=C(Nc1cccc(NC(=O)c2ccc(-c3cccc(Br)c3)o2)c1)c1ccco1 | 6.32%
82 | CCN(CC)CCOC(=O)c1c(C)n(C)c2ccc(OC)cc12.Cl | 4.14%
83 | CCCOc1ccccc1NC(=O)Nc1ccccc1Cl | 7.87%
84 | O=C(Nc1nnc(-c2ccco2)o1)c1cccc(Cl)c1 | 12.8%
85 | CC(=O)N/C(=C\c1cccs1)C(=O)O | 12.8%
86 | COc1cc(CNc2cc(C)ccc2C)cc(OC)c1OC | 8.88%
